Data: the antibiotic and cytotoxicity screens of Wong et al. (2023)
The other results are listed elsewhere or left out.

These compounds were tested on S. aureus RN4220 (assay: growth inhibition call (relative growth <= 0.2)). Conditions: 50 µM.

Growth inhibition call, inactive:
CC(C)NC(=O)N1CC[C@@H]2N(S(C)(=O)=O)CC[C@@]2(C(=O)N2CCOCC2)CC1
C[C@H]1[C@H](C)CC[C@]2(C(=O)O[C@@H]3O[C@H](CO[C@@H]4O[C@H](CO)[C@@H](O[C@@H]5O[C@@H](C)[C@H](O)[C@@H](O)[C@H]5O)[C@H](O)[C@H]4O)[C@@H](O)[C@H](O)[C@H]3O)CC[C@]3(C)C(=CC[C@@H]4[C@@]5(C)C[C@@H](O)[C@H](O)[C@@](C)(CO)[C@@H]5[C@H](O)C[C@]43C)[C@H]12
COc1ccc(NC(=O)Nc2ccc3c(c2)C(=O)N([C@@H](C)CO)C[C@@H](C)[C@@H](CN(C)C(=O)Nc2c(C)noc2C)OCCCC[C@@H](C)O3)cc1
CC[C@@H](N)CC12CC3CC(CC(C3)C1)C2
O=C(C[C@@H]1CC[C@@H](NC(=O)c2ccc(F)cc2)[C@H](CO)O1)NCc1ccncn1
Cc1ccc(S(=O)(=O)N2CCNCC2)cc1
COC(=O)C(c1ccccc1Cl)N1CCc2sccc2C1.O=S(=O)(O)O (stereo not given)
COc1ccc(C#Cc2ccc3c(c2)[C@]2(C(=O)N3)[C@H](C(=O)Nc3nc4ccccc4s3)[C@H]3C(=O)O[C@H](c4ccccc4)[C@H](c4ccccc4)N3[C@@H]2c2ccc(O)cc2)cc1
Oc1ccc(O)cc1
O=C(N[C@@H](c1ccc(-c2ccccc2)cc1)c1cnccn1)C1CCN(Cc2ccc(Oc3ccccc3)cc2)CC1
CCCNC(=O)C[C@@H]1CC[C@H]2[C@@H](COc3ccc(NS(=O)(=O)c4ccccc4C)cc3C(=O)N2C)O1
CON=C1CC2(CC3CC(CC=C(C)CC(C)C=CC=C4COC5C(O)C(C)=CC(C(=O)O3)C45O)O2)OC(C(C)=CC(C)C)C1C (stereo not given)
C[C@@H]1CCCCO[C@@H](CN(C)C(=O)Nc2ccccc2)[C@H](C)CN([C@H](C)CO)C(=O)c2cc(NC(=O)NC3CCCCC3)ccc2O1
Cc1ccc(S(=O)(=O)Nc2ccc3c(c2)C(=O)N([C@@H](C)CO)C[C@@H](C)[C@H](CN(C)Cc2ccncc2)OCCCC[C@H](C)O3)cc1
C[C@H](CO)N1C[C@H](C)[C@H](CN(C)C(=O)Nc2ccccc2)OCCCC[C@H](C)Oc2ccc(NC(=O)Nc3ccccc3)cc2C1=O
C[C@@H]1CN([C@H](C)CO)C(=O)CCCn2nncc2CO[C@@H]1CN(C)S(=O)(=O)c1ccc(Oc2ccccc2)cc1
C[C@@H]1CCCCO[C@H](CN(C)S(=O)(=O)c2ccc(F)cc2)[C@@H](C)CN([C@@H](C)CO)C(=O)c2cc(NS(C)(=O)=O)ccc2O1
C[C@H]1C[C@@](N)(C(=O)O)C1
COc1ccccc1C#Cc1ccc2c(c1)O[C@H](CN(C)C(C)=O)[C@@H](C)CN([C@@H](C)CO)S2(=O)=O
CCCCCN1C/C=C\CCC(=O)N(C)[C@H](C)[C@@H](c2ccccc2)OC(=O)[C@@H]2[C@@H]3C=C[C@]4(O3)[C@H](C1=O)N(c1ccccc1Cl)C(=O)[C@@H]24
C[C@H](O)C#Cc1ccc2c(c1)O[C@@H](CN(C)C(=O)Cc1ccccn1)[C@@H](C)CN([C@@H](C)CO)S2(=O)=O
C[C@H](CO)N1C[C@H](C)[C@H](CN(C)S(=O)(=O)c2ccccc2)Oc2cc(Br)ccc2S1(=O)=O
C[C@@H]1CN([C@@H](C)CO)S(=O)(=O)c2ccc(C#CCC3CCCC3)cc2O[C@@H]1CN(C)C(=O)c1cnccn1
Cc1noc(C)c1NC(=O)Nc1ccc2c(c1)C(=O)N([C@H](C)CO)C[C@@H](C)[C@H](CN(C)C(=O)Nc1c(C)noc1C)OCCCC[C@@H](C)O2
O=C(C[C@@H]1CC=CC[C@H](NC(=O)OCC2c3ccccc3-c3ccccc32)C(=O)OC[C@@H](Cc2c[nH]c3ccccc23)NC1=O)N[C@H](CO)Cc1ccccc1
COc1ccc(NC(=O)Nc2ccc3c(c2)C(=O)N([C@@H](C)CO)C[C@H](C)[C@@H](CN(C)Cc2ccc4c(c2)OCO4)OCCCC[C@H](C)O3)cc1
N[C@H](C(=O)O)[C@@H]1CC(Cl)=NO1
C[C@@H]1CN([C@@H](C)CO)C(=O)c2cc(NC(=O)NC3CCCCC3)ccc2O[C@@H](C)CCCCO[C@H]1CN(C)S(=O)(=O)c1ccc(F)cc1
CCn1cc(C(=O)O)c(=O)c2cc(F)c(N3CCN(C(=S)Nc4cc(C(F)(F)F)ccc4Cl)CC3)cc21
Clc1ccc(Cn2cccc2)cn1
CC(C)NC(=O)NCC[C@@H]1CC[C@H](NC(=O)CN(C)C)[C@H](CO)O1
CN1CCc2onc(Cn3ccnc3)c2C1
Cc1cc(C(=O)Nc2cccc3c2O[C@H](CN(C)S(=O)(=O)c2ccc(Cl)cc2)[C@H](C)CN([C@H](C)CO)C3=O)n(C)n1
C[C@H](CO)N1C[C@H](C)[C@@H](CN(C)C(=O)c2ccccc2F)Oc2ncc(C#Cc3ccncc3)cc2C1=O
COc1cc2c(cc1OC)CN(C(=O)[C@H]1[C@@H]3C(=O)O[C@@H](c4ccccc4)[C@@H](c4ccccc4)N3[C@@H](c3ccc(OCCO)cc3)[C@]13C(=O)Nc1ccc(C#CCCO)cc13)CC2
Cc1ccccc1S(=O)(=O)N1C[C@H](O)COC[C@@H]2O[C@H](CC(=O)NCc3ccccc3Cl)CC[C@H]21
CC(C)NC(=O)Nc1ccc2c(c1)C(=O)N([C@@H](C)CO)C[C@@H](C)[C@@H](CN(C)S(=O)(=O)c1ccc(Cl)cc1)O2
CCN(CC)C(=O)C1CCNCC1
CC1(C)C(=O)C=CC2(C)C1C=CC1(C)C2CCC2(C)C(c3ccoc3)OC(=O)C3OC312 (stereo not given)
O=C(C[C@@H]1CC[C@@H]2[C@H](COC[C@H](O)CN2C(=O)c2ccc3c(c2)OCO3)O1)NCCN1CCCCC1
